Source: patent US20160130324A1 (SHIRE HUMAN GENETIC THERAPIES, published 2016)

Key:
rhC1s [1] = target: T1, rhC1s (human, UniProt P09871 16-688); test: inhibition of rhC1s cleavage of a colorimetric peptide substrate, average OD; concentrations from gel estimated sizes; C is the midpoint of the 4-parameter fit [panel B]
T1 construct: Enzyme of the colorimetric peptide cleavage assay; Human is read from the printed label 'rhC1s'
T1 sequence (looked up): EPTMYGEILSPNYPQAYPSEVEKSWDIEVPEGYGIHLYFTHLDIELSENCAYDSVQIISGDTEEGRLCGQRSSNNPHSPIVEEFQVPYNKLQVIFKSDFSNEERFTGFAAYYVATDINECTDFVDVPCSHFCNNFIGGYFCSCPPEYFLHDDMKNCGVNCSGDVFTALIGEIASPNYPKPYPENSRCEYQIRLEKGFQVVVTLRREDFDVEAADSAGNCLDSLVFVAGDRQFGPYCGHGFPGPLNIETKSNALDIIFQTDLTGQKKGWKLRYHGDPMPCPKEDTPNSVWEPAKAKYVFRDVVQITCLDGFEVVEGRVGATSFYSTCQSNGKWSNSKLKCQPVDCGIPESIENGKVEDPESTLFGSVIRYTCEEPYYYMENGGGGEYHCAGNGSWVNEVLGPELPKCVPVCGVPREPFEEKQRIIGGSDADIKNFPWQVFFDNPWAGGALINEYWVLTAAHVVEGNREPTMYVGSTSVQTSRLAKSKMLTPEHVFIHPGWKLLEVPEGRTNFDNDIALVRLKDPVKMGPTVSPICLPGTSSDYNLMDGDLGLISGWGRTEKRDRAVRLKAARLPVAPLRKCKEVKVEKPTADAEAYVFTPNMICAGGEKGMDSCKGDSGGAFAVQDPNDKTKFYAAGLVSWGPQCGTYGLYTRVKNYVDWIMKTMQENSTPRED

rhC1s [2] = target: T1, rhC1s; test: inhibition of rhC1s cleavage of a colorimetric peptide substrate, average OD; concentrations from mass spec sizes; C is the midpoint of the 4-parameter fit [panel A]
biotin-C1s = target: T2, biotin-C1s; test: functional ELISA of the C1s/C1-INH complex: diluted C1-INH with biotin-C1s, captured on a streptavidin plate, anti-C1-INH-HRP, OD450; C is the midpoint of the 4-parameter fit
T2 construct: Used in the functional ELISA that measures the C1s/C1-INH complex
T2 sequence (P09871 16-688, species assumed, looked up): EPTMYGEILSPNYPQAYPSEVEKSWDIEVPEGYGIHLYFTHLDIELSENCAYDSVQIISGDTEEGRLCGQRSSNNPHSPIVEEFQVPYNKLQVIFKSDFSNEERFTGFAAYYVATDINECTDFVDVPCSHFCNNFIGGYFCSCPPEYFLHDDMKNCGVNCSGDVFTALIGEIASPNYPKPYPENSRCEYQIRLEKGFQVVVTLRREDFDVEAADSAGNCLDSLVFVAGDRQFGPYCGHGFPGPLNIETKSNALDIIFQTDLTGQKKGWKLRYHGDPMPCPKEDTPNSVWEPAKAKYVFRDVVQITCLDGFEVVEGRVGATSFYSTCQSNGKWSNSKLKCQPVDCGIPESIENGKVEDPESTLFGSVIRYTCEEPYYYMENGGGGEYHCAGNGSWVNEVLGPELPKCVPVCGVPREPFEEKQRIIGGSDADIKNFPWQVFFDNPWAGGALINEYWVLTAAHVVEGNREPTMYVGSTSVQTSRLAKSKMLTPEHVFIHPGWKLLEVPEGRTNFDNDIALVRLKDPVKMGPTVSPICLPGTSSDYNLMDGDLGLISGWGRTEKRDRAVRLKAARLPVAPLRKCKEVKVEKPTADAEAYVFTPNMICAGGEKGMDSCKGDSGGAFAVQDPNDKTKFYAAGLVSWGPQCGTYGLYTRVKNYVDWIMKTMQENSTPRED
Description: This method was used to test the effector dead Fc constructs made for PK studies FIG. 8. The ELISA protocol was as follows: [0334] 60 μL diluted C1-INH+12 μL biotin-C1s [0335] 30 min incubation at RT [0336] Transfer 50 μL of complexes to streptavidin coated plate [0337] 10 min incubation at RT, wash 5× [0338] Add 50 μL of anti-C1-INH-HRP [0339] 60 min incubation at RT, wash 5× [0340] Add 100 μL of TMB substrate [0341] 15 minute incubation at RT [0342] […] Read at OD450

[3] = target: T3, Fc neonatal receptor (FcRn), extracellular domain; test: SPR (Biacore), FcRn amine-coupled to CM5, running buffer pH 6.0
T3 construct: extracellular domain
T3 sequence (P55899 24-297, chain 1 of 2): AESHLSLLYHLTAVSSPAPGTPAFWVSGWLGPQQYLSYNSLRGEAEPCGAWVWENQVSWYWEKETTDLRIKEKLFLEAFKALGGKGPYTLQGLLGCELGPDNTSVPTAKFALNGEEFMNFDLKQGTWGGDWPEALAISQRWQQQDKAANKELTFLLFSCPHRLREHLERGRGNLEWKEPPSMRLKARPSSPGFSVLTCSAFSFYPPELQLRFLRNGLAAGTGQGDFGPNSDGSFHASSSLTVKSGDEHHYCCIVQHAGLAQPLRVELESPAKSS
T3 sequence (P61769 21-119, chain 2 of 2, further chain): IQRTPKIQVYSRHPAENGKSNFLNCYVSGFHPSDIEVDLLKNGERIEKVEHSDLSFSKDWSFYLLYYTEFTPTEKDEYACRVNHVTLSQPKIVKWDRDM
Description: Binding to the extracellular domain of the FcRN was measured by surface plasmon resonance (SPR) using a Biacore system.
Direct immobilization with FcRn was achieved via amine coupling of a CM5 chip with FcRn under the following conditions: [0291] FcRn (Sino Biological Inc or in-house BD1) is diluted in Acetate buffer pH 5.0 (Cat#BR-1003-51) to 10 μg/mL. [0292] Flow rate: 10 μl/min [0293] Final coupling signal 354 Ru [0294] Running buffer: PBS-P+, pHed to 6.0
The kinetic binding study was done using the following protocol. Samples were diluted in PBS-P+ to 100, 50, 25, 12.5, 6.25, 3.125, 0 nM. The parameters were set as follows: [0296] Association 300 s and Dissociation 600 s at Flow rate 30 μL/min [0297] Regeneration with 25 mM Tris, 150 mM NaCl pH 8.0

[4] = target: T4, FcγRI, extracellular domain; test: SPR (Biacore), FcγRI captured by anti-His on CM5
T4 construct: extracellular domain; also called FcγR1; FcgR1
T4 sequence (P12314 16-292): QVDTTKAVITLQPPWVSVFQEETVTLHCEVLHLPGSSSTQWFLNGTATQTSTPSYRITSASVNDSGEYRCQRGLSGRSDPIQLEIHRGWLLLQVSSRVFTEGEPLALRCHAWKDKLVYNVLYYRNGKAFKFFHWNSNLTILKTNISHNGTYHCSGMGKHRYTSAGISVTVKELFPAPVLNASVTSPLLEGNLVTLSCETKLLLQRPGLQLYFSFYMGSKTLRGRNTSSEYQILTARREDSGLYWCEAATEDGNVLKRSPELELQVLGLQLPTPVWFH
Description: Binding to the extracellular domain of the FcγR1 was measured by surface plasmon resonance (SPR) using a Biacore system. The Biacore capture approach is depicted in FIG. 7. The assay setup was as follows: [0314] HBS-P+ used as running buffer [0315] Coupling anti-His (GE, anti-His Kit) on CM5 to 16000 Ru
Sample Preparation [0319] […] Other samples (N-hFcIgG4m-C1 Inh, N-hFcIgG4m-C1-INH Tr, N-hFcLala-C1-INH and N-hFclala-C1-INH Tr) are diluted in HBS-P+ buffer to 100, 50, 25, 12.5, 6.25 nM

Binder	IC50 (rhC1s [1]) [nM]	IC50 (rhC1s [2]) [nM]	EC50 (biotin-C1s) [nM]	Kd [3] [nM]	koff [3] [s⁻¹]	kon [3] [M⁻¹ s⁻¹]	Kd [4] [nM]	koff [4] [s⁻¹]	kon [4] [M⁻¹ s⁻¹]
full length C1-inhibitor with an N-terminal IgG1 Fc (N-hFc-C1-INH) (Fc fusion, Used as positive control in the FcγRI SPR assay; also called hFc IgG1-C1-INH) [letters of human IgG1 Fc not shown]NPNATSSSSQDPESLQDRGEGKVATTVISKMLFVEPILEVSSLPTTNSTTNSATKITANTTDEPTTQPTTEPTTQPTIQPTQPTTQLPTDSPTQPTTGSFCPGPVTLCSDLESHSTEAVLGDALVDFSLKLYHAFSAMKKVETNMAFSPFSIASLLTQVLLGAGENTKTNLESILSYPKDFTCVHQALKGFTTKGVTSVSQIFHSPDLAIRDTFVNASRTLYSSSPRVLSNNSDANLELINTWVAKNTNNKISRLLDSLPSDTRLVLLNAIYLSAKWKTTFDPKKTRMEPFHFKNSVIKVPMMNSKKYPVAHFIDQTLKAKVGQLQLSHNLSLVILVPQNLKHRLEDMEQALSPSVFKAIMEKLEMSKFQPTLLTLPRIKVTTSQDMLSIMEKLEFFDFSYDLNLCGLTEDPDLQVSAMQHQTVLELTETGVEAAAASAISVARTLLVFEVQQPFLFVLWDQQHKFPVFMGRVYDPRA	0.437	0.612							
full-length C1-inhibitor with an N-terminal IgG1 LALA Fc (N-hFcLala-C1-INH) (Fc fusion, Effector dead construct; also called FL C1-INH hFc IgG1 LALA; LALA FL) [letters of human IgG1 Fc with changes not shown]NPNATSSSSQDPESLQDRGEGKVATTVISKMLFVEPILEVSSLPTTNSTTNSATKITANTTDEPTTQPTTEPTTQPTIQPTQPTTQLPTDSPTQPTTGSFCPGPVTLCSDLESHSTEAVLGDALVDFSLKLYHAFSAMKKVETNMAFSPFSIASLLTQVLLGAGENTKTNLESILSYPKDFTCVHQALKGFTTKGVTSVSQIFHSPDLAIRDTFVNASRTLYSSSPRVLSNNSDANLELINTWVAKNTNNKISRLLDSLPSDTRLVLLNAIYLSAKWKTTFDPKKTRMEPFHFKNSVIKVPMMNSKKYPVAHFIDQTLKAKVGQLQLSHNLSLVILVPQNLKHRLEDMEQALSPSVFKAIMEKLEMSKFQPTLLTLPRIKVTTSQDMLSIMEKLEFFDFSYDLNLCGLTEDPDLQVSAMQHQTVLELTETGVEAAAASAISVARTLLVFEVQQPFLFVLWDQQHKFPVFMGRVYDPRA	0.531	0.744	0.834						
full-length C1-inhibitor with an N-terminal IgG4 S241P Fc (N-hFcIgG4m-C1-INH) (Fc fusion, Effector dead construct; also called N-IgG4m-C1-INH; FL C1-INH hFc IgG4m) [letters of human IgG4 Fc with S228P (EU numbers) not shown]NPNATSSSSQDPESLQDRGEGKVATTVISKMLFVEPILEVSSLPTTNSTTNSATKITANTTDEPTTQPTTEPTTQPTIQPTQPTTQLPTDSPTQPTTGSFCPGPVTLCSDLESHSTEAVLGDALVDFSLKLYHAFSAMKKVETNMAFSPFSIASLLTQVLLGAGENTKTNLESILSYPKDFTCVHQALKGFTTKGVTSVSQIFHSPDLAIRDTFVNASRTLYSSSPRVLSNNSDANLELINTWVAKNTNNKISRLLDSLPSDTRLVLLNAIYLSAKWKTTFDPKKTRMEPFHFKNSVIKVPMMNSKKYPVAHFIDQTLKAKVGQLQLSHNLSLVILVPQNLKHRLEDMEQALSPSVFKAIMEKLEMSKFQPTLLTLPRIKVTTSQDMLSIMEKLEFFDFSYDLNLCGLTEDPDLQVSAMQHQTVLELTETGVEAAAASAISVARTLLVFEVQQPFLFVLWDQQHKFPVFMGRVYDPRA	0.513	0.718	0.958	30	0.00562	187000	23.1	0.00167	72300
Fc-C1inh(Tr) (Fc fusion, also called construct 2) Fc fusion chain: [letters of human IgG1 Fc not shown]GSFCPGPVTLCSDLESHSTEAVLGDALVDFSLKLYHAFSAMKKVETNMAFSPFSIASLLTQVLLGAGENTKTNLESILSYPKDFTCVHQALKGFTTKGVTSVSQIFHSPDLAIRDTFVNASRTLYSSSPRVLSNNSDANLELINTWVAKNTNNKISRLLDSLPSDTRLVLLNAIYLSAKWKTTFDPKKTRMEPFHFKNSVIKVPMMNSKKYPVAHFIDQTLKAKVGQLQLSHNLSLVILVPQNLKHRLEDMEQALSPSVFKAIMEKLEMSKFQPTLLTLPRIKVTTSQDMLSIMEKLEFFDFSYDLNLCGLTEDPDLQVSAMQHQTVLELTETGVEAAAASAISVARTLLVFEVQQPFLFVLWDQQHKFPVFMGRVYDPRA	5.68	6.64							
truncated C1-inhibitor with an N-terminal IgG1 LALA Fc (N-hFcLala-C1-INH Tr) (Fc fusion, Effector dead construct; also called Tr C1-INH hFc IgG1 LALA; LALA TR) [letters of human IgG1 Fc with changes not shown]GSFCPGPVTLCSDLESHSTEAVLGDALVDFSLKLYHAFSAMKKVETNMAFSPFSIASLLTQVLLGAGENTKTNLESILSYPKDFTCVHQALKGFTTKGVTSVSQIFHSPDLAIRDTFVNASRTLYSSSPRVLSNNSDANLELINTWVAKNTNNKISRLLDSLPSDTRLVLLNAIYLSAKWKTTFDPKKTRMEPFHFKNSVIKVPMMNSKKYPVAHFIDQTLKAKVGQLQLSHNLSLVILVPQNLKHRLEDMEQALSPSVFKAIMEKLEMSKFQPTLLTLPRIKVTTSQDMLSIMEKLEFFDFSYDLNLCGLTEDPDLQVSAMQHQTVLELTETGVEAAAASAISVARTLLVFEVQQPFLFVLWDQQHKFPVFMGRVYDPRA	0.921	1.08	3.43						
truncated C1-inhibitor with an N-terminal IgG4 S241P Fc (N-hFcIgG4m-C1-INH Tr) (Fc fusion, Effector dead construct; also called N-IgG4m-C1-INH Tr; Tr C1-INH hFc IgG4m) [letters of human IgG4 Fc with S228P (EU numbers) not shown]GSFCPGPVTLCSDLESHSTEAVLGDALVDFSLKLYHAFSAMKKVETNMAFSPFSIASLLTQVLLGAGENTKTNLESILSYPKDFTCVHQALKGFTTKGVTSVSQIFHSPDLAIRDTFVNASRTLYSSSPRVLSNNSDANLELINTWVAKNTNNKISRLLDSLPSDTRLVLLNAIYLSAKWKTTFDPKKTRMEPFHFKNSVIKVPMMNSKKYPVAHFIDQTLKAKVGQLQLSHNLSLVILVPQNLKHRLEDMEQALSPSVFKAIMEKLEMSKFQPTLLTLPRIKVTTSQDMLSIMEKLEFFDFSYDLNLCGLTEDPDLQVSAMQHQTVLELTETGVEAAAASAISVARTLLVFEVQQPFLFVLWDQQHKFPVFMGRVYDPRA	1.55	1.81	3.65	70.7	0.00946	134000	7.28	0.000862	118000
